Results: the supplement of paper PMC4967469
IC50 is the fitted dose that halves viability relative to control wells, and lower means more sensitive; a fit beyond the top or the lowest dose is shown as a bound at that dose. For AUC the same curve is integrated over the 256-fold range of doses and scaled to a fraction; the more sensitive the line, the further below 1. For some assays here: The top dose, if marked as inferred, comes from the curve model; the source does not state it. For some assays here: Drugs with an entry number were screened twice under separate entries, and the two screens often disagree.

Assays:
Assay in all cases: Viability of human cancer cell lines after 72 h of drug (GDSC screen)
CEP-701 = compound: C[C@]12O[C@H](C[C@]1(O)CO)n1c3ccccc3c3c4c(c5c6ccccc6n2c5c31)CNC4=O [CEP-701]; conditions: top dose 2 µM; top dose inferred
Description: (§1)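 Human cancer cell lines in 384-well plates, medium with 10% serum, drug for 72 h over a 256-fold dose range (nine 2-fold or five 4-fold steps up to the top dose). Adherent lines were fixed and stained with the nucleic acid dye Syto60, suspension lines read with resazurin; signal relative to control wells, capped at 0 and 100%. One two-parameter sigmoid per drug and line, fitted in a mixed model over all curves with the slope shared within a line.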

GDC0941 = compound: CS(=O)(=O)N1CCN(Cc2cc3nc(-c4cccc5[nH]ncc45)nc(N4CCOCC4)c3s2)CC1 [GDC0941]; conditions: top dose 4 µM; screen: GDSC drug entry 1527; top dose inferred
Description: as §1

Pazopanib = compound: Cc1ccc(Nc2nccc(N(C)c3ccc4c(C)n(C)nc4c3)n2)cc1S(N)(=O)=O [Pazopanib]; conditions: top dose 8 µM
Description: as §1

AR-42 = compound: CC(C)[C@H](C(=O)Nc1ccc(C(=O)NO)cc1)c1ccccc1 [AR-42]; conditions: top dose 5.12 µM; top dose inferred
Description: as §1

SB 216763 = compound: Cn1cc(C2=C(c3ccc(Cl)cc3Cl)C(=O)NC2=O)c2ccccc21 [SB 216763]; conditions: top dose 10 µM; top dose inferred
Description: as §1

Cell Line	AUC (CEP-701)	IC50 (CEP-701)	AUC (GDC0941)	IC50 (GDC0941)	AUC (Pazopanib)	IC50 (Pazopanib)	AUC (AR-42)	IC50 (AR-42)	AUC (SB 216763)	IC50 (SB 216763)
NCI-H2023 (lung adenocarcinoma, adherent)	0.717	605 nM	0.642	685 nM	0.978	> 8 µM	0.76	2230 nM	0.905	> 10 µM
HN (head and neck, adherent)	0.445	89.5 nM	0.744	1190 nM	0.981	> 8 µM	0.883	4900 nM	0.965	> 10 µM
EFM-192A (breast, adherent)	0.924	> 2000 nM	0.696	953 nM	0.667	1.55 µM	0.652	889 nM	0.98	> 10 µM
FU97 (stomach, adherent)	0.464	99.7 nM	0.674	779 nM	0.553	0.699 µM	0.745	1650 nM	0.951	> 10 µM
HCC38 (breast, adherent)	0.869	> 2000 nM	0.928	> 4000 nM	0.976	> 8 µM	0.607	644 nM	0.986	> 10 µM
SU-DHL-5 (B-cell lymphoma, suspension)	0.386	65.9 nM	0.291	76.6 nM	0.976	> 8 µM	0.137	37.4 nM	0.994	> 10 µM
G-402 (soft tissue, adherent)	0.505	130 nM	0.594	494 nM	0.484	0.444 µM	0.889	> 5120 nM	0.83	9.42 µM
CAL-12T (non-small cell lung carcinoma, adherent)	0.781	936 nM	0.762	1590 nM	0.884	> 8 µM	0.662	955 nM	0.925	> 10 µM
PC-14 (lung adenocarcinoma, adherent)	0.692	402 nM	0.916	> 4000 nM	0.895	7.89 µM	0.477	279 nM	0.99	> 10 µM
NCI-H1048 (small cell lung carcinoma, adherent)	0.554	173 nM	0.765	1320 nM	0.96	> 8 µM	0.671	906 nM	0.983	> 10 µM
LN-229 (glioma, adherent)	0.791	894 nM	0.857	3230 nM	0.964	> 8 µM	0.673	970 nM	0.957	> 10 µM
BT-20 (breast, adherent)	0.827	1630 nM	0.847	> 4000 nM	0.95	> 8 µM	0.792	2970 nM	0.984	> 10 µM
PA-TU-8988T (pancreas, adherent)	0.712	497 nM	0.785	1720 nM	0.932	> 8 µM	0.791	2320 nM	0.94	> 10 µM
WM793B (melanoma, adherent)	0.694	467 nM	0.873	> 4000 nM	0.858	7.72 µM	0.728	1540 nM	0.945	> 10 µM
DB (B-cell lymphoma, suspension)	0.542	165 nM	0.902	> 4000 nM	0.978	> 8 µM	0.336	105 nM	0.922	> 10 µM
TOV-112D (ovary, adherent)	0.668	369 nM	0.755	1360 nM	0.809	4.2 µM	0.546	427 nM	0.986	> 10 µM
KYSE-510 (oesophagus, adherent)	0.881	1490 nM	0.884	3080 nM	0.963	> 8 µM	0.733	1280 nM	0.992	> 10 µM
NCI-H2087 (lung adenocarcinoma, semi-adherent)	0.882	> 2000 nM	0.937	> 4000 nM	0.909	> 8 µM	0.621	710 nM	0.97	> 10 µM
LCLC-97TM1 (large cell lung carcinoma, adherent)	0.622	280 nM	0.815	2460 nM	0.881	> 8 µM	0.546	432 nM	0.93	> 10 µM
EW-7 (Ewing sarcoma, semi-adherent)	0.84	1140 nM	0.599	450 nM	0.987	> 8 µM	0.436	219 nM	0.987	> 10 µM
HCC1395 (breast, adherent)	0.861	> 2000 nM	0.835	3420 nM	0.719	2.4 µM	0.911	> 5120 nM	0.981	> 10 µM
H2722 (mesothelioma, adherent)	0.873	> 2000 nM	0.862	> 4000 nM	0.904	> 8 µM	0.605	657 nM	0.984	> 10 µM
CAKI-1 (kidney, adherent)	0.532	160 nM	0.732	1630 nM	0.819	7.93 µM	0.511	349 nM	0.961	> 10 µM
NCI-H2452 (mesothelioma, adherent)	0.793	1110 nM	0.752	1560 nM	0.907	> 8 µM	0.96	> 5120 nM	0.935	> 10 µM
M059J (glioma, adherent)	0.695	465 nM	0.905	> 4000 nM	0.766	3.2 µM	0.624	725 nM	0.95	> 10 µM
PL4 (pancreas, adherent)	0.854	1660 nM	0.797	1960 nM	0.977	> 8 µM	0.748	1690 nM	0.98	> 10 µM
SW1573 (lung adenocarcinoma, adherent)	0.774	–	–	–	0.973	> 8 µM	0.756	2310 nM	0.962	> 10 µM
MKN28 (stomach, adherent)	0.904	> 2000 nM	–	–	0.959	> 8 µM	0.788	2300 nM	0.953	> 10 µM

Cell Line	AUC (CEP-701)	IC50 (CEP-701)	AUC (GDC0941)	IC50 (GDC0941)	AUC (Pazopanib)	IC50 (Pazopanib)	AUC (AR-42)	IC50 (AR-42)	AUC (SB 216763)	IC50 (SB 216763)
NCI-H1734 (lung adenocarcinoma, adherent)	0.733	625 nM	–	–	0.985	> 8 µM	0.601	625 nM	0.977	> 10 µM
KYSE-140 (oesophagus, adherent)	0.692	467 nM	–	–	0.971	> 8 µM	0.983	> 5120 nM	0.941	> 10 µM
H2795 (mesothelioma, adherent)	0.39	62.6 nM	–	–	0.911	> 8 µM	0.734	1470 nM	0.987	> 10 µM
CAL-33 (head and neck, adherent)	0.653	331 nM	–	–	0.961	> 8 µM	0.7	1170 nM	0.986	> 10 µM
SW48 (large intestine, adherent)	0.407	69.5 nM	–	–	0.859	6.58 µM	0.598	595 nM	0.92	> 10 µM
SK-MES-1 (lung squamous cell carcinoma, adherent)	0.386	59.1 nM	–	–	0.841	6.28 µM	0.551	447 nM	0.944	> 10 µM
HuP-T3 (pancreas, adherent)	0.709	563 nM	–	–	0.956	> 8 µM	0.626	772 nM	0.977	> 10 µM
HuP-T4 (pancreas, adherent)	0.781	879 nM	–	–	0.973	> 8 µM	0.56	472 nM	0.971	> 10 µM
AU565 (breast, adherent)	0.814	1250 nM	–	–	0.889	> 8 µM	0.518	359 nM	0.965	> 10 µM
A2058 (melanoma, adherent)	0.799	842 nM	–	–	0.927	> 8 µM	0.882	4410 nM	0.99	> 10 µM
KYSE-410 (oesophagus, adherent)	0.687	435 nM	–	–	0.961	> 8 µM	0.755	1840 nM	0.971	> 10 µM
IGR-1 (melanoma, adherent)	0.834	1080 nM	–	–	0.97	> 8 µM	0.509	338 nM	0.989	> 10 µM
P12-ICHIKAWA (T-cell lymphoblastic leukaemia, suspension)	0.651	294 nM	–	–	0.974	> 8 µM	0.314	111 nM	0.981	> 10 µM
A427 (non-small cell lung carcinoma, adherent)	0.287	31.1 nM	–	–	0.743	2.5 µM	0.865	4610 nM	0.981	> 10 µM
NCI-H64 (small cell lung carcinoma, suspension)	0.78	616 nM	–	–	0.986	> 8 µM	0.45	243 nM	0.996	> 10 µM
NCI-H2110 (non-small cell lung carcinoma, adherent)	0.713	510 nM	–	–	0.985	> 8 µM	0.516	354 nM	0.983	> 10 µM
RPMI-7951 (melanoma, adherent)	0.554	174 nM	–	–	0.951	> 8 µM	0.576	512 nM	0.918	> 10 µM
NCI-H2122 (lung adenocarcinoma, adherent)	0.84	1250 nM	–	–	0.912	> 8 µM	0.831	2960 nM	0.982	> 10 µM
MKN45 (stomach, adherent)	0.785	1100 nM	–	–	0.983	> 8 µM	0.917	> 5120 nM	0.962	> 10 µM
MDA-MB-361 (breast, adherent)	0.741	608 nM	–	–	0.894	> 8 µM	0.453	238 nM	0.987	> 10 µM
NCI-H838 (lung adenocarcinoma, adherent)	0.695	452 nM	–	–	0.965	> 8 µM	0.649	844 nM	0.987	> 10 µM
RH-41 (rhabdomyosarcoma, adherent)	0.892	1690 nM	–	–	0.954	> 8 µM	0.754	1470 nM	0.99	> 10 µM
SW1783 (glioma, adherent)	0.843	1220 nM	–	–	0.981	> 8 µM	0.673	918 nM	0.935	> 10 µM
NCI-H460 (large cell lung carcinoma, adherent)	0.487	116 nM	–	–	0.99	> 8 µM	0.951	> 5120 nM	0.988	> 10 µM
NCI-H3122 (lung adenocarcinoma, adherent)	0.678	400 nM	–	–	0.834	5.43 µM	0.549	436 nM	0.987	> 10 µM
MCF7 (breast, adherent)	0.816	1160 nM	–	–	0.925	> 8 µM	0.924	> 5120 nM	0.917	> 10 µM
NCI-H28 (mesothelioma, adherent)	0.706	580 nM	–	–	0.976	> 8 µM	0.916	> 5120 nM	0.916	> 10 µM
